Data: PubChem BioAssay (NCI)
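Each compound was tested at five concentrations against cells in 96-well plates for 48 hours. GI50 is the concentration that inhibits growth by half. TGI: concentration producing complete growth inhibition.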

Tested on: NCI-H322M lung
Assay: NCI anticancer screen, dose series, 48 h

SMILES	GI50 [µM]	TGI [µM]
COc1ccc2[nH]cc(-c3cc(N)n4nc(-c5cn(C)c6ccccc56)cc4n3)c2c1	1.58	3.11
C#CCNC(=O)CCC(=O)OC[C@]12CC[C@@H](C(=C)C)[C@@H]1C1CC[C@@H]3[C@@]4(C)CCCNC(C)(C)[C@@H]4CC[C@@]3(C)[C@]1(C)CC2 (some centres undefined)	9.59	18.1
